Results published in patent publication US20190062428A1, “COMBINATION OF ANTI-CD47 ANTIBODIES AND CELL DEATH-INDUCING AGENTS, AND USES THEREOF” (Surface Oncology, Inc., priority 2017, published 2019).
Entries after “also recorded” stand apart in the source; their conditions may differ.

How the values were obtained:
human erythrocytes = details: cited from earlier work
Jurkat cells [1] = assay: Macrophage / CFSE-labeled Jurkat co-culture, Live/Dead staining and phagocytosis by flow cytometry; assay type: cell-based, human; details: macrophages:Jurkat 1:2, 2 hours; FIG. 1 and 2
From the text: Jurkat cells were utilized as the target cells due to their expression of CD47 on their surface.
Non-phagocytosed Jurkat cells (CFSE+CD14-) were isolated by flow-cytometry and analyzed for Live/Dead staining using a Live/Dead Violet kit (Life Technologies). […] Without being bound by theory, it is believed that 2.3D11-induced triggering of cell death pathways in target cells may enhance target cell uptake by macrophages.

red blood cell = details: cited from earlier work
Ri-1 tumors = assay: Ri-1 human B cell lymphoma (DLBCL) subcutaneous xenograft, tumor volume; assay type: in vivo, CB.17 SCID mice; details: FIG. 4
Protocol: The Ri-1 cell line is a human B cell lymphoma line that represents the ABC-subtype of diffuse large cell B cell lymphoma (DLBCL) and harbors a BCL-2 amplification. ABT-199, also known as Venclexta™ or Venetoclax, is an oral BCL-2 inhibitor, and was used as the cell death-inducing agent.
Briefly, 1×10^7 Ri-1 cells were injected subcutaneously into the right flank of CB.17 SCID mice in a 1:1 mixture of RPMI and Matrigel. Tumors were allowed to grow until they were 200-300 mm^3.

[2] = target: interaction between CD47 and SIRPα (Homo sapiens, UniProt Q08722); details: cited from earlier work
Jurkat cells [3] = assay: Jurkat cell death on immobilized antibody after pan-caspase inhibitor Z-VAD-FMK pre-treatment, Annexin V/PI; assay type: cell-based, human; details: Z-VAD-FMK 100, 10 or 1 μM pre-treatment 1 hour, 24 hours, FIG. 3A
Protocol: Jurkat cells were utilized to determine whether the induction of cell death by an anti-CD47 antibody was caspase and/or PLCγ1 dependent.
To assay whether anti-CD47 induced cell death was caspase dependent or independent Jurkat cells were pre-treated for 1 hour at 37° C., with DMSO (control), 100 μM pan-caspase inhibitor Z-VAD-FMK, 10 μM pan-caspase inhibitor Z-VAD-FMK, or 1 μM pan-caspase inhibitor Z-VAD-FMK. […] Cell death was evaluated by Annexin V+/Propidium Iodide (PI) staining via flow cytometry.

[4] = system: wildtype Jurkat cells or PLCγ1-deficient Jurkat cells (J.Gamma1 cells); assay: Cell death of wildtype vs PLCγ1-deficient Jurkat cells (J.Gamma1) on immobilized antibody, Annexin V; assay type: cell-based, human; details: dose titration of immobilized antibody, overnight; FIG. 3B
Protocol: Jurkat cells were utilized to determine whether the induction of cell death by an anti-CD47 antibody was caspase and/or PLCγ1 dependent. […] To assay whether anti-CD47 induced cell death was PLCγ1 dependent or independent wildtype Jurkat cells or PLCγ1-deficient Jurkat cells (J.Gamma1 cells) were utilized. […] Cell death was assessed by Annexin V surface staining by flow cytometry and the percent of events staining positive for Annexin V is graphed as a function of antibody concentration in FIG. 3B.

tumor cells = details: cited from earlier work

B1: 2.3D11: anti-CD47 monoclonal antibody comprising a heavy chain and light chain as set forth in SEQ ID NOs: 13 and 16 (human IgG4, kappa) (antibody)
heavy: QVQLQESGPGLVKPSGTLSLTCAVSGVSIRSINWWNWVRQPPGKGLEWIGEIYHSGSTNYNPSLKSRVTISVDKSKNQFSLKLNSVTAADTAVYYCARDGGIAVTDYYYYGLDVWGQGTTVTVSSASTKGPSVFPLAPCSRSTSESTAALGCLVKDYFPEPVTVSWNSGALTSGVHTFPAVLQSSGLYSLSSVVTVPSSSLGTKTYTCNVDHKPSNTKVDKRV[left out - human IgG4 Fc]
light: EIVLTQSPATLSLSPGERATLSCRASESVSSNLAWYQQKPGQAPRLLIYGAFNRATGIPARFSGSGSGTDFTLTISSLEPEDFAVYYCQQRSDWFTFGGGTKVEIKTVAAPSVFIFPPSDEQLKSGTASVVCLLNNFYPREAKVQWKVDNALQSGNSQESVTEQDSKDSTYSLSSTLTLSKADYEKHKVYACEVTHQGLSSPVTKSFNRGEC
modifications: Synthetic 2.3D11 heavy chain; Synthetic 2.3D11 light chain
hemagglutination (human erythrocytes): not induce hemagglutination
death of CD47 expressing cells (dead non-phagocytosed and phagocytosed Jurkat cells) (Jurkat cells [1]): induces death of CD47 expressing cells via phagocytosis and non-phagocytosis mechanisms
red blood cell phagocytosis (red blood cell): not induce
single-agent anti-tumor activity (Ri-1 tumors; 2.3D11 100 μg/mouse days 0, 3, 7, ABT-199 25 mg/kg days 0-4): potent single-agent anti-tumor activity
tumor re-growth (Ri-1 tumors; single agents as above, combination: 2.3D11 100 μg/mouse day 0, then oral ABT-199 25 mg/kg days 3, 4, 5): tumors re-grew
inhibition of the interaction between CD47 and SIRPα [2]: potently inhibit
caspase dependence of 2.3D11-mediated cell death (effect of pan-caspase inhibitor Z-VAD-FMK) (Jurkat cells [3]): negligible effect; also recorded: caspase independent
PLCγ1 dependence of 2.3D11-induced cell death [4]: partially dependent on PLCγ1 expression
phagocytosis of tumor cells (tumor cells): enhance phagocytosis
